Measurements published in the supplement of paper PMC8728848.
The other results are listed elsewhere or left out.

Columns and labels:
Assay in all cases: glycan array binding signal (z-score within array); higher = stronger binding
Conditions in all cases: glycan notation: IUPAC condensed, linker removed
GalNAc(b1-4)GlcNAc = target: GalNAc(b1-4)GlcNAc
Procedure, shortened: (§1)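 From the Consortium for Functional Glycomics database, 3228 arrays were curated, keeping only those whose protein sequence was available. Binding is given as a within-array Z-score averaged across arrays sharing a protein sequence and across linkers. Negative Z-scores can be read as non-binding.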

[1] = target: GalNAc(b1-4)GlcNAc(b1-2)Man
Procedure, shortened: as §1

[2] = target: GalNAc(b1-4)GlcNAc(b1-2)Man(a1-3)[GalNAc(b1-4)GlcNAc(b1-2)Man(a1-6)]Man(b1-4)GlcNAc(b1-4)GlcNAc
Procedure, shortened: as §1

[3] = target: GalNAc(b1-4)GlcNAc(b1-3)GalNAc(b1-4)GlcNAc
Procedure, shortened: as §1

GalNAc(b1-4)GlcNAc6S = target: GalNAc(b1-4)GlcNAc6S
Procedure, shortened: as §1

GalNAc(b1-6)GalNAc = target: GalNAc(b1-6)GalNAc
Procedure, shortened: as §1

GalNAc3S(b1-4)GlcNAc = target: GalNAc3S(b1-4)GlcNAc
Procedure, shortened: as §1

GalNAc3S(b1-4)GlcNAc3S = target: GalNAc3S(b1-4)GlcNAc3S
Procedure, shortened: as §1

[4] = target: GalNAc3S(b1-4)[Fuc(a1-3)]GlcNAc
Procedure, shortened: as §1

GalNAc4S6S(b1-4)GlcNAc = target: GalNAc4S6S(b1-4)GlcNAc
Procedure, shortened: as §1

GalNAc6S(b1-4)GlcNAc = target: GalNAc6S(b1-4)GlcNAc
Procedure, shortened: as §1

Glc(a1-4)Glc = target: Glc(a1-4)Glc
Procedure, shortened: as §1

[5] = target: Glc(a1-4)Glc(a1-4)Glc(a1-4)Glc
Procedure, shortened: as §1

Glc(a1-6)Glc(a1-6)Glc = target: Glc(a1-6)Glc(a1-6)Glc
Procedure, shortened: as §1

[6] = target: Glc(a1-6)Glc(a1-6)Glc(a1-6)Glc
Procedure, shortened: as §1

Glc(b1-4)Glc = target: Glc(b1-4)Glc
Procedure, shortened: as §1

Glc(b1-6)Glc = target: Glc(b1-6)Glc
Procedure, shortened: as §1

GlcA(b1-3)Gal = target: GlcA(b1-3)Gal
Procedure, shortened: as §1

GlcA(b1-3)GlcNAc = target: GlcA(b1-3)GlcNAc
Procedure, shortened: as §1

GlcA(b1-6)Gal = target: GlcA(b1-6)Gal
Procedure, shortened: as §1

[7] = target: GlcA3S(b1-3)Gal(b1-4)GlcNAc(b1-2)Man
Procedure, shortened: as §1

[8] = target: GlcA3S(b1-3)Gal(b1-4)GlcNAc(b1-3)Gal(b1-4)Glc
Procedure, shortened: as §1

[9] = target: GlcNAc(a1-3)Gal(b1-4)GlcNAc
Procedure, shortened: as §1

[10] = target: GlcNAc(a1-4)Gal(b1-3)GlcNAc
Procedure, shortened: as §1

[11] = target: GlcNAc(a1-4)Gal(b1-4)GalNAc
Procedure, shortened: as §1

[12] = target: GlcNAc(a1-4)Gal(b1-4)GlcNAc
Procedure, shortened: as §1

[13] = target: GlcNAc(a1-4)Gal(b1-4)GlcNAc(b1-3)Gal(b1-4)Glc
Procedure, shortened: as §1

[14] = target: GlcNAc(a1-4)Gal(b1-4)GlcNAc(b1-3)Gal(b1-4)GlcNAc
Procedure, shortened: as §1

[15] = target: GlcNAc(a1-4)Gal(b1-4)GlcNAc(b1-3)Gal(b1-4)GlcNAc(b1-3)Gal(b1-4)GlcNAc
Procedure, shortened: as §1

[16] = target: GlcNAc(a1-4)Gal(b1-4)GlcNAc(b1-3)Gal(b1-4)[Fuc(a1-3)]GlcNAc(b1-3)Gal(b1-4)[Fuc(a1-3)]GlcNAc
Procedure, shortened: as §1

[17] = target: GlcNAc(a1-6)Gal(b1-4)GlcNAc
Procedure, shortened: as §1

[18] = target: GlcNAc(b1-2)Gal(b1-3)GalNAc
Procedure, shortened: as §1

[19] = target: GlcNAc(b1-2)Man(a1-3)[GlcNAc(b1-2)Man(a1-6)]Man(b1-4)GlcNAc(b1-4)GlcNAc
Procedure, shortened: as §1

[20] = target: GlcNAc(b1-2)Man(a1-3)[GlcNAc(b1-2)Man(a1-6)]Man(b1-4)GlcNAc(b1-4)[Fuc(a1-6)]GlcNAc
Procedure, shortened: as §1

[21] = target: GlcNAc(b1-2)Man(a1-3)[GlcNAc(b1-4)][GlcNAc(b1-2)Man(a1-6)]Man(b1-4)GlcNAc(b1-4)GlcNAc
Procedure, shortened: as §1

[22] = target: GlcNAc(b1-2)Man(a1-3)[GlcNAc(b1-4)][GlcNAc(b1-2)Man(a1-6)]Man(b1-4)GlcNAc(b1-4)[Fuc(a1-6)]GlcNAc
Procedure, shortened: as §1

[23] = target: GlcNAc(b1-2)[GlcNAc(b1-4)]Man(a1-3)[GlcNAc(b1-2)Man(a1-6)]Man(b1-4)GlcNAc(b1-4)GlcNAc
Procedure, shortened: as §1

B1: Als3-N (Candida albicans) (protein)
chain: KTITGVFNSFNSLTWSNAATYNYKGPGTPTWNAVLGWSLDGTSASPGDTFTLNMPCVFKFTTSQTSVDLTAHGVKYATCQFQAGEEFMTFSTLTCTVSNTLTPSIKALGTVTLPLAFNVGGTGSSVDLEDSKCFTAGTNTVTFNDGGKKISINVDFERSNVDPKGYLTDSRVIPSLNKVSTLFVAPQCANGYTSGTMGFANTYGDVQIDCSNIHVGITKGLNDWNYPVSSESFSYTKTCSSNGIFITYKNVPAGYRPFVDAYISATDVNSYTLSYANEYTCAGGYWQRAPFTLRWTGYRNSDAGSNGIVIVATTRTVTDSTTAVTTLPFDPNRDKTKTIEILKPIPTTTITTSYVGVTTSYLTKTAPIGETATVIVDIPYHTTTTVTSKWTGTITSTTTHTNPTDSIDTVIVQVP
GalNAc(b1-4)GlcNAc
  glycan array binding signal (z-score): 0.163
[1]
  glycan array binding signal (z-score): 0.231
[2]
  glycan array binding signal (z-score): -0.214
[3]
  glycan array binding signal (z-score): 0.102
GalNAc(b1-4)GlcNAc6S
  glycan array binding signal (z-score): -0.145
GalNAc(b1-6)GalNAc
  glycan array binding signal (z-score): -0.232
GalNAc3S(b1-4)GlcNAc
  glycan array binding signal (z-score): -0.328
GalNAc3S(b1-4)GlcNAc3S
  glycan array binding signal (z-score): 0.535
[4]
  glycan array binding signal (z-score): -0.054
GalNAc4S6S(b1-4)GlcNAc
  glycan array binding signal (z-score): 0.111
GalNAc6S(b1-4)GlcNAc
  glycan array binding signal (z-score): 0.002
Glc(a1-4)Glc
  glycan array binding signal (z-score): -0.188
[5]
  glycan array binding signal (z-score): 0.082
Glc(a1-6)Glc(a1-6)Glc
  glycan array binding signal (z-score): -0.244
[6]
  glycan array binding signal (z-score): 0.126
Glc(b1-4)Glc
  glycan array binding signal (z-score): -0.181
Glc(b1-6)Glc
  glycan array binding signal (z-score): -0.125
GlcA(b1-3)Gal
  glycan array binding signal (z-score): -0.356
GlcA(b1-3)GlcNAc
  glycan array binding signal (z-score): -0.165
GlcA(b1-6)Gal
  glycan array binding signal (z-score): -0.174
[7]
  glycan array binding signal (z-score): -0.101
[8]
  glycan array binding signal (z-score): 0.051
[9]
  glycan array binding signal (z-score): -0.341
[10]
  glycan array binding signal (z-score): -0.207
[11]
  glycan array binding signal (z-score): -0.081
[12]
  glycan array binding signal (z-score): 0.287
[13]
  glycan array binding signal (z-score): -0.033
[14]
  glycan array binding signal (z-score): -0.232
[15]
  glycan array binding signal (z-score): -0.263
[16]
  glycan array binding signal (z-score): 1.31
[17]
  glycan array binding signal (z-score): -0.233
[18]
  glycan array binding signal (z-score): -0.234
[19]
  glycan array binding signal (z-score): -0.283
[20]
  glycan array binding signal (z-score): -0.12
[21]
  glycan array binding signal (z-score): -0.281
[22]
  glycan array binding signal (z-score): -0.229
[23]
  glycan array binding signal (z-score): -0.262
